The values below come from the RNAGym collection of RNA variant scans (doi:10.1093/nar/gkz1192).

The source gives no read counts; variants with many changes may rest on few reads.

B1: CPEB3 Ribozyme (parent)
chain: UAACAGGGGGCCACAGCAGAAGCGUUCACGUCGCAGCCCCUGUCAGAUUCUGGUGAAUCUGCGAAUUCUGCUGUAUAUCUC

In this data set the parent is B1. Nature of the data set: self-cleavage, relative activity (ratio to wild type); higher = more cleavage; in vitro, sequencing. Put shortly: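 Barcoded CPEB3 ribozyme mutants, produced by rounds of error-prone PCR, self-cleaved while being transcribed with T7 RNA polymerase for 5 hours at 37°C and during a subsequent 15 min DNase I step before EDTA was added. Sequencing of template-switched cDNA on Illumina gave cleaved and total reads, and DNA sequencing assigned barcodes to variants. Each variant's relative activity is its cleaved/total read fraction divided by the unmutated ribozyme's fraction, averaged across three batches. A variant needed a minimum of 5 reads.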
Take UAACAGGGGGCCACAGCAGAAGCGUUCACGUCGCUGCCCCUGUCAGACUCUGGUGAAUCUGCGCAUUCUGCUGUAUAUCUC [A35U U48C A64C]: the self-cleavage amounted to 0.16. To UAACAGGGGGCCACAGCAGAAGCGUUCACGUCGCUGCCCCUGUCAGACUCUGGUGAAUCUGCGAAUUCUGCUGUAUAUUUC [A35U U48C C79U] belongs 0.38; to UAACAGGGGGCCACAGCAGAAGCGUUCACGUCGCUGCCCCUGACAGAUUCUGGUGAACCUGCGAAUUCUGCUGUAUAUCUC [A35U U43A U58C], 0.14.

Consider UAACAGGGGGCCACAGCAGAAGCGUUCACGUCGCUGCCCCUGCCAGAUUCUGGUGAAUCUGCGAAUUCUCCUGUAUAUCUC [A35U U43C G70C], for which the self-cleavage was 0.1. To UAACAGGGGGCCACAGCAGAAGCGUUCACGUCGCUGCCCCUGACAGAUUCUGGUGAACCAGCGAAUUCUGCCGUAUAUCUC [A35U U43A U58C U60A U72C] belongs 0.12; to UAACAGGGGGCCACAGCAGAAGCGUUCACGUCGCUGCCCCGGUCAGAUUCCGGUGUAUCUGCGAAUUCCGCUGUAUACCUC [A35U U41G U51C A56U U69C U78C], 0.09. With UAACAGGGGGCCACAGCAGAAGCGUUCACGUCGCUGCCCCUGCCAGACUCUGGUGAAUCUGCGAGAUCUGCUGUAUAUCUC [A35U U43C U48C A65G U66A], the self-cleavage amounted to 0.16. Take UAACAGGGGGCCACAGCAGAAGCGUUCACGUCGCUGCCCCUGACAGAUUCUGGCGAAUCUGCGAAUCCAGCUGUAUAUCUC [A35U U43A U54C U67C U69A]: the self-cleavage was found to be 0.14.

For UAACAGGGGGCCACAGCAGAAGCGUUCACGUCGCUGCCCCUGCCAGAUUCCGGUGAAUCUGCGAAUUCUGCUGUAUUUCUC [A35U U43C U51C A77U], the self-cleavage was 0.25. To UAACAGGGGGCCACAGCAGAAGCGUUCACGUCGCUGCCCCUGUCAGAAUCUGGUGAAUCUGCGAACUCUGCUGUAUAUCUC [A35U U48A U66C] belongs 0.12; to UAACAGGGGGCCACAGCAGAAGCGUUCACGUCGCUGCCCCUGACAGAUUCUGGUGAAUCUGCGGAUUCUGCUGUAUUUCUC [A35U U43A A64G A77U], 0.59; to UAACAGGGGGCCACAGCAGAAGCGUUCACGUCGCUGCCCCUGACAGGUUCUGGGGAAUCUGCGAAUUCUGCCGUAUAUCUC [A35U U43A A47G U54G U72C], 0.32.

As to UAACAGGGGGCCACAGCAGAAGCGUUCACGUCGCUGCCCCUGCCAGAUUCUGGUGAAUCUGCGAAUCCUGCUGUAUAUCUC [A35U U43C U67C], the self-cleavage was 0.32. To UAACAGGGGGCCACAGCAGAAGCGUUCACGUCGCUGCCCCUGCCAGAUUCUGGUGGAUCUGCGAAUUCUGCUGUAUAUCUC [A35U U43C A56G] belongs 0.3; to UAACAGGGGGCCACAGCAGAAGCGUUCACGUCGCUGCCCCUGACAGAUUCUCGUGGAUCUGCGAAUUCUGCUGUAUAUCUC [A35U U43A G52C A56G], 0.33; to UAACAGGGGGCCACAGCAGAAGCGUUCACGUCGCUGCCCCUGACUGAUUCUGGUGAACCUGCGAAUUCUGCUGUAUUUCUC [A35U U43A A45U U58C A77U], 0.23. To UAACAGGGGGCCACAGCAGAAGCGUUCACGUCGCUGCCCCUGACAGGUUCUGGUGAAUCUGCGAAUUCCGCUGCAUAUCUC [A35U U43A A47G U69C U74C] belongs 0.13. For the variant UAACAGGGGGCCACAGCAGAAGCGUUCACGUCGCUGCCCCUGACAGAUUCUGGAGAAUCUGCGAAUUCUGCUGUAUAUCUC [A35U U43A U54A], the self-cleavage came to 0.36. For UAACAGGGGGCCACAGCAGAAGCGUUCACGUCGCUGCCCCUGACGGUUUCUGGUGAAUCUGCGAAUUCUGCUGUAAAUCUC [A35U U43A A45G A47U U76A], the self-cleavage stood at 0.17. Take UAACAGGGGGCCACAGCAGAAGCGUUCACGUCGCUGCCCCUGCCAGAUUCUGGUGAAUCUGCGAAUUCUGCUGCAUAGCUC [A35U U43C U74C U78G]: the self-cleavage was determined as 0.62. To UAACAGGGGGCCACAGCAGAAGCGUUCACGUCGCUGCCCCUGUCAGAAUCUGGUGAAUCUGCAAAUUCUGCCGUAUAUCUC [A35U U48A G63A U72C] belongs 0.2. To UAACAGGGGGCCACAGCAGAAGCGUUCACGUCGCUGCCCCGGUCAGAUUCUGCGGAGUCUGCGAAUUCUGCUGCAUAUCUC [A35U U41G G53C U54G A57G U74C] belongs 0.15; to UAACAGGGGGCCACAGCAGAAGCGUUCACGUCGCUGCCCCUGCCAGAUUCUGGUGAAACUGCGAAUUCUGCUGUAUACCUC [A35U U43C U58A U78C], 0.13. UAACAGGGGGCCACAGCAGAAGCGUUCACGUCGCUGCCCCGGUCAGAUUCUGGUGAAUCUGCGAAUUCUGCUGUAUGUCUC [A35U U41G A77G]: the self-cleavage came out at 0.29. To UAACAGGGGGCCACAGCAGAAGCGUUCACGUCGCUGCCCCGGUCAGAUCCUGGUGAAUCUGCGAAUUCUGCCGUAUAUCUC [A35U U41G U49C U72C] belongs 0.06; to UAACAGGGGGCCACAGCAGAAGCGUUCACGUCGCUGCCCCUGCCUGAUUCUGGUGAACCUGCGAGUUCUGCCGUAUAUCUC [A35U U43C A45U U58C A65G U72C], 0.07. To UAACAGGGGGCCACAGCAGAAGCGUUCACGUCGCUGCCCCGGUCAGAUUCUGGUGAAUCUGCGUAUCCUGCCGUAUAUCUC [A35U U41G A64U U67C U72C] belongs 0.08; to UAACAGGGGGCCACAGCAGAAGCGUUCACGUCGCUGCCCCUGUCAGACUCUAGUGAAUCUGCGAAUUCAGCUGUAUAUCUC [A35U U48C G52A U69A], 0.08; to UAACAGGGGGCCACAGCAGAAGCGUUCACGUCGCUGCCCCUGCCAGAUUCUGGUGAAUCUGCGAAUCCUGCCGUAUAUCUC [A35U U43C U67C U72C], 0.07.

Consider UAACAGGGGGCCACAGCAGAAGCGUUCACGUCGCUGCCCCGGUCAGAUUCUGGUGAAUCUGCGAAUUCCGCUGUAUAUCUC [A35U U41G U69C], for which the self-cleavage is 0.45. Regarding UAACAGGGGGCCACAGCAGAAGCGUUCACGUCGCUGCCCCUGCCAGAUUCCGGUGAAUCUGCGAAUUCAGCUGUAUAUCUC [A35U U43C U51C U69A], the self-cleavage amounted to 0.17. To UAACAGGGGGCCACAGCAGAAGCGUUCACGUCGCUGCCCCUGGUAGAUUCUGGUGAAUCUGCGAAUUCUGCUGUAUAUCUC [A35U U43G C44U] belongs 0.17; to UAACAGGGGGCCACAGCAGAAGCGUUCACGUCGCUGCCCCUGUCAGACUCAGGUGAAUCUGCGAAUUCUGCUGUACAUCUC [A35U U48C U51A U76C], 0.25.

For the variant UAACAGGGGGCCACAGCAGAAGCGUUCACGUCGCUGCCCCUGACAGAUACAGGUGAGUCAGCGAAUUCUGCUGUAUAUCUC [A35U U43A U49A U51A A57G U60A], the self-cleavage turned out to be 0.17.
